In PubChem BioAssay (NCI):
Several values for one entry are separate records, joined by “and”; a condition that tells them apart may be missing. Equal entries are not always repeated.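 How tested: cells in 96-well plates exposed to compound for 48 hours at five concentrations. GI50 is the concentration that inhibits growth by half. At the TGI there is no net growth.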

These compounds were tested on NCI-H322M lung (assay: NCI-60 cell line screen, 48 h).
In the case of `O=C1CS(=O)(=O)C(c2cccc(Oc3ccccc3)c2)N1c1ccccc1` (stereo not given), the TGI is reported as > 100 µM.
With `COC(=O)c1cccc(OC)c1C#Cc1c(OC)cccc1OC` the TGI was > 100 µM.
`NC(=O)c1ccccc1NC(=O)c1ccccc1Cl` was tested, and the GI50 was > 100 µM and the TGI was > 100 µM.
With `O=C(O)c1ccccc1N=Nc1ccc2oc(=O)c(C(=O)Nc3ccccc3)cc2c1` the TGI was > 100 µM.
In the case of `NC(=Nc1ccccc1)c1ccccc1N`, the TGI is reported as > 100 µM.
`CC(=O)NC1(C(=O)N[C@@H](Cc2ccccc2)C(=O)NC2CCCCC2)Cc2ccc3ccccc3c2-c2c(ccc3ccccc23)C1` was tested, and the TGI was > 100 µM.
`COc1cc(/C=C\c2ccc(Br)cc2)cc(OC)c1OC` was tested, and the TGI was > 100 µM.
Work on `Cc1c(O)c(OC2OC(CO)C(O)C(O)C2O)cc2c1C=C[C@@H]1[C@@]2(C)C(=O)C[C@]2(C)[C@@H]([C@@](C)(O)C(=O)CCC(C)(C)O)[C@H](O)C[C@@]12C` (stereo not given in full) yielded a TGI of 58.2 µM.
In the case of `Nc1cc(S(N)(=O)=O)ccc1SSc1ccc(S(N)(=O)=O)cc1N`, the TGI is reported as > 100 µM.
`COc1cc(F)c(/C=C/c2cc(/C=C/c3cc(OC)c(OC)cc3F)n(-c3cc(F)cc(F)c3)n2)cc1OC` gave a GI50 of 2.67 µM and a TGI of 8 µM.
For `CCOC(=O)c1[nH]c2cccc3c2c1CC[C@H](NC(=O)C(F)(F)F)C3=O`, the TGI was > 100 µM.
With `O=C(N/N=C(/COc1ccccc1Cl)N=Cc1ccncc1)c1ccncc1` the TGI was > 100 µM.
In the case of `CCOC(=O)C(C(=O)OCC)C(=O)c1ccccc1C(=O)c1ccccc1`, the TGI is reported as > 100 µM.
For `CC(C)C[C@H](NC(=O)[C@@H](NC(=O)c1cccc(-c2ccccc2)n1)[C@@H](C)O)B(O)O`, the GI50 was 0.15 µM and 0.311 µM and the TGI was 26.2 µM.
In the case of `CCOc1nccc2c1nc(-c1nonc1N)n2CC`, the GI50 is reported as > 25 µM and the TGI is reported as > 25 µM.
In the case of `Cc1cc(C)c(S(=O)(=O)N(CCc2cccc(Br)c2)Cc2ccc(-c3cccc(S(C)(=O)=O)c3)cc2)c(C)c1`, the GI50 is reported as > 100 µM and the TGI is reported as > 100 µM.
In the case of `Nc1nc(=O)n(C2OC(CO)C(O)C2O)c2ncc(-c3ccc(-c4ccccc4)cc3)nc12` (stereo not given), the TGI is reported as > 100 µM.
In the case of `CCCc1nnc2sc(COc3cc(Cl)c(OCc4nn5c(CCC)nnc5s4)cc3Cl)nn12`, the TGI is reported as > 100 µM.
`COc1ccc(Cn2cc3c(c2-c2cc(OC)c(OC)c(OC)c2)CCc2cnoc2-3)cc1N` was tested, and the GI50 was 0.0599 µM and the TGI was > 100 µM.
With `Cc1cc(O)cc(O)c1C(=O)O[C@]1(C)C(=O)C=C2C=C(/C=C/C(=O)O)OC=C2C1=O` the TGI was > 100 µM.
`CN(C)CCNC(=O)c1ccc(Cl)c2cc3ccccc3nc12` gave a TGI of 7.07 µM.
Work on `COC(=O)[C@]12CC[C@@H](C)[C@H](C)[C@@H]1C1=CC[C@@H]3[C@@]4(C)C(C=O)=C[C@@](C)(COS(C)(=O)=O)C4[C@H](O)C[C@@]3(C)[C@]1(C)CC2` (stereo not given in full) yielded a GI50 of 3.13 µM and a TGI of 13.9 µM.
With `COc1cccc(CCC(=O)c2cc3c(N)c(C(=O)Nc4cccc(Cl)c4C)sc3nc2C)c1` the GI50 was 3.56 µM and the TGI was > 100 µM.
Compound `COc1ccc(-c2ccc(-c3ccc(C(=N)N)cn3)o2)cc1Cl` has a GI50 of 1.63 µM and a TGI of 3.28 µM.
In the case of `CCOC(=O)C1=C(Nc2ccc(Br)cc2)OC/C1=N\NC(=O)c1ccccc1O`, the TGI is reported as > 100 µM.
For `O=C(COc1cccc(/C=C2\Oc3ccc4ccccc4c3C2=O)c1)c1ccc(Cl)cc1`, the GI50 was > 100 µM and the TGI was > 100 µM.
For `CCCCCN(CCCCC)CC(C)(C)C(O)c1ccc(OC)c2ccccc12` (stereo not given), the TGI was 26.3 µM.
`CN(C)CCCCn1ccc2c1C(=O)c1c(c(O)c3ccccc3c1O)C2=O` was tested, and the GI50 was 1.63 µM and the TGI was 11.7 µM.
For `CC1(C(=O)O)CCOc2ccccc21` (stereo not given), the TGI was > 100 µM.
In the case of `CS/C(c1ccccc1)=[N+](\[O-])Cc1ccccc1`, the TGI is reported as > 100 µM.
With `CCOC(=O)C(NC(=O)CC)(Nc1ccc(F)c(Cl)c1)C(F)(F)F` (stereo not given) the TGI was > 100 µM.
For `Cc1c2ccccc2c(C)n2c1nc1ccccc12`, the TGI was 14.8 µM.
With `Cc1cnccc1N=Nc1ccc(N(C)C)cc1` the TGI was > 100 µM.
With `COc1ccc(-c2cc(-c3cccc(NS(C)(=O)=O)c3)nc(N)c2C#N)cc1` the GI50 was 0.461 µM and the TGI was > 82.7 µM.
In the case of `COc1cc2c(cc1OC)[C@@](C)(C(O)C(O)C(C)(C)O)NCC2` (stereo not given in full), the TGI is reported as > 100 µM.
With `O=[N+]([O-])c1ccc([N+]2=NC(c3ccccc3)=NN(c3ccccc3)C2)cc1` the TGI was > 100 µM.
`O=C(O)CNC(=O)c1ccc2cc(C(=O)N3CC(CCl)c4ccc([N+](=O)[O-])cc43)[nH]c2c1` (stereo not given) was tested, and the TGI was > 100 µM.
For `Cc1cc(N2CCCC2)c([N+](=O)[O-])cc1[N+](=O)[O-]`, the TGI was > 100 µM.
For `CCCC(=O)NC(Nc1ccc(F)cc1)(C(F)(F)F)C(F)(F)F`, the TGI was > 100 µM.
`Cc1cc2oc(C)c(S(=O)(=O)NC(=O)Nc3ccc(Cl)cc3)c(=O)c2c(=O)o1` was tested, and the TGI was > 100 µM.
`N#CC[N+]1(Cc2ccccn2)CCCC1` was tested, and the TGI was > 100 µM.
`C=C(CNC(=O)c1ccccc1)c1ccc(C(=O)Nc2ccccc2N)cc1` was tested, and the GI50 was 4.32 µM and the TGI was > 100 µM.
With `C[C@@H](COCCC(=O)N1CCN(c2ncc(C(F)(F)F)cn2)CC1)Nc1cn[nH]c(=O)c1C(F)(F)F` the GI50 was > 100 µM and the TGI was > 100 µM.
In the case of `OCC(O)C(O)C(O)c1nn(-c2ccccc2)c2nc3cc(Cl)c(Cl)cc3nc12` (stereo not given), the TGI is reported as > 100 µM.
Compound `CCC(=O)/C(=C\I)c1ccccc1` has a TGI of 27.6 µM.
For `COc1ccc2c(c1)CCN1CCCc3ccccc3C21` (stereo not given), the TGI was > 100 µM.
